Our source for the z-score values is PubChem BioAssay AID488969 (Vanderbilt High Throughput Screening Facility, 2010).

Over roughly 110,000 compounds, “z-score” has its median near -0.1; the highest 2% begin near 2. Some of the results follow. The source made the active and inactive calls.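 The calls were made as follows: active = z-score in the third read window above 3 or below -3; inactive = the rest.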

The target in the assay is Metabotropic glutamate receptor 8 (Rattus norvegicus) (UniProt P70579). Description: mGluR8 Gi/Go-coupled signaling modulation – cell-based, rat, thallium flux, HTS, primary screen (AID 488969). As to conditions: HEK293 rat mGluR8, GIRK (G protein-gated inwardly rectifying potassium channel) thallium flux, FluoZin2; at 10 µM; stronger effect = higher value; submaximal glutamate (EC20) added with thallium.
UniProt P70579, sequence (P70579 whole entry, looked up): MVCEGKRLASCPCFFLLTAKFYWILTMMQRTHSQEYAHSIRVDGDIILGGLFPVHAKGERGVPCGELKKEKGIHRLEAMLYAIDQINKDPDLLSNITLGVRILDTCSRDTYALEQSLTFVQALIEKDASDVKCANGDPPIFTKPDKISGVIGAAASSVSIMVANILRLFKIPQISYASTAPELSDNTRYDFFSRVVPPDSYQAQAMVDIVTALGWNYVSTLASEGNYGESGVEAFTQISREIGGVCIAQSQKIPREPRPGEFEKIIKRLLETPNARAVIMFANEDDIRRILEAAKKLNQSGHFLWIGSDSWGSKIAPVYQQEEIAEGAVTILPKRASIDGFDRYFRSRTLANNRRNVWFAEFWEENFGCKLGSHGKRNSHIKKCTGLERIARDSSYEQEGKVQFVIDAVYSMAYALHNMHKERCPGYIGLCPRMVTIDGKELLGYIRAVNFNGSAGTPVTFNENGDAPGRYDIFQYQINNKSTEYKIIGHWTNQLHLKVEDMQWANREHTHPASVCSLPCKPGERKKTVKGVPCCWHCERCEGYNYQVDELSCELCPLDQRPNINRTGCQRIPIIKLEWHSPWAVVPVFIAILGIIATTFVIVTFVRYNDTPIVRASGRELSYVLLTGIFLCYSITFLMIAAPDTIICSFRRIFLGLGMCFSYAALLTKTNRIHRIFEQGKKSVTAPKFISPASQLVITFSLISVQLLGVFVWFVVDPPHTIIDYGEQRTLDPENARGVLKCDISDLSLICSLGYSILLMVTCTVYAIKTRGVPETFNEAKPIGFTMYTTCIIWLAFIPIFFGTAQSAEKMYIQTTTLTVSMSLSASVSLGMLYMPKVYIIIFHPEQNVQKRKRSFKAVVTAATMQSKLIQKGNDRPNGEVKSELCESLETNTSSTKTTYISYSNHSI
Regarding `O=[N+]([O-])c1ccc(/C=N/Nc2nc(N3CCCCCC3)nc(N3CCCCCC3)n2)o1`, the z-score was -0.242. For `O=CN1CCN(C(=O)COc2ccc(Cl)cc2Br)CC1` the value was -0.129; for `CCCCn1c(SCC(=O)/C(C#N)=C(\C)N)nc2ccccc2c1=O`, active: 5.63; for `CCOc1cc(/C=N/O)cc(Cl)c1OC`, -0.446. For `Cc1ccc(CCNC(=O)C2CCC(=O)N2C2CCCC2)cc1` (stereo not drawn) the value was 0.531; for `COc1ccc(C)cc1S(=O)(=O)N(C)CC(=O)N1CCN(C)CC1`, -1.59; for `CCC1(C)NC(=O)N(CC(=O)Nc2sc3c(c2C(=O)OC)CCCCC3)C1=O` (stereo not drawn), -0.222. For `CN(C)/C=N/C(=S)Nc1ccccc1F` the value was 0.0261; for `COc1cc(OC)cc(-c2nc3nc(C)c(CCC(=O)O)c(C)n3n2)c1`, -0.302. In the case of `O=C(NCc1cccs1)C1CCC(CNS(=O)(=O)c2ccc(Br)s2)CC1` (stereo not drawn), the z-score was -0.263.

`c1ccc(-c2ccccc2-c2nc(-c3ccncc3)no2)cc1` registered a z-score of -0.475. The same measure for `COc1ccc(NC(C(=O)Nc2cccc(C(C)=O)c2)c2ccccc2)cc1` (stereo not drawn): -0.108. The same measure for `O=C(Nc1ccccc1Cl)N1CCN(c2ccc3nnc(-c4ccccc4)n3n2)CC1`: -0.661; for `C/C(N)=C(/C#N)C(=O)CSc1nnc(-c2ccccc2Br)o1`: -0.333; for `CS(=O)(=O)N(CC(=O)NCc1ccncc1)c1ccc(Cl)c(Cl)c1`: -0.214.

`CC(C(=O)Nc1ccccc1)c1ccc(-c2ccccc2)c(F)c1` (stereo not drawn): the z-score was -0.0839. `O=c1[nH]c(-c2ccc(F)cc2)nc2c1sc(=S)n2-c1ccccc1`: the z-score is -0.202. For `CSc1nc(N)c(C#N)c(-c2ccccc2Cl)c1C#N` the value was -0.153; for `CC1(C)C2CCC1(CS(=O)(=O)Nc1ccc(S(=O)(=O)NC3CCCCC3)cc1)C(=O)C2` (stereo not drawn), -0.219. For `N#CC1(C#N)[C@@H](C(=O)C23CC4CC(CC(C4)C2)C3)C12CCOCC2` the value was -0.244; for `COC(=O)C1=C(C(=O)OC)SC2(S1)C(C(=O)OC)=C(C(=O)OC)SC1=C2c2cccc(C)c2NC1(C)C`, -0.103. The same measure for `O=C(CSc1ncn[nH]1)NC12CC3CC(CC(C3)C1)C2`: -0.299. With `Clc1nc(-c2ccccn2)nc2scc(-c3ccccc3)c12`, the z-score stood at 0.138. The same measure for `CCOC(=O)c1sc(N)c(C#N)c1COC(=O)CNC(=O)c1ccccc1`: -1.18. For `Oc1ccccc1-c1nnc(COc2ccc(Cl)cc2Cl)o1` the value was -0.566; for `O=C(NCCNc1ccc([N+](=O)[O-])cc1)c1ccccc1Br`, -0.315.

`O=C(c1cccs1)n1nc(-c2ccc(Cl)cc2)nc1NCc1ccco1` displayed a z-score of 0.732. For `O=C(NCN1C(=O)C2C3C=CC(C3)C2C1=O)Nc1cccnc1` (stereo not drawn) the value was 0.331; for `CN/C=C1\C(=O)C(C)(C)Oc2ccc3ccc(=O)oc3c21`, -0.738.

With `CC(=O)C1=C(O)C(=O)N(Cc2ccccc2)C1c1ccccc1F` (stereo not drawn), the z-score is -1.22.

`CCCCCCC(c1c(C)n(C)n(-c2ccccc2)c1=O)c1c(C)n(C)n(-c2ccccc2)c1=O` registered a z-score of -1.19. The same measure for `COc1ccccc1NC(=O)C1=C(C)NC(SCC(=O)c2ccccc2)=C(C#N)C1c1ccco1` (stereo not drawn): 0.838; for `CCC(c1nnnn1Cc1ccco1)N(CCc1ccccc1)Cc1cc2cccc(C)c2[nH]c1=O` (stereo not drawn): 0.382. For `COc1ccc(Cl)cc1S(=O)(=O)N1CCN(C(=O)c2cc(OC)c(OC)c(OC)c2)CC1` the value was 0.0484. The same measure for `O=C(c1ccc(Cl)cc1)c1cnc(-c2ccccc2)s1`: -0.129; for `CN(Cc1ccccc1)C(=O)CN(c1ccc(F)cc1)S(=O)(=O)c1ccc2c(c1)OCCO2`: -0.317.

Turning to `O=C(Nc1ccccc1)N1CC=C(c2ccccc2)CC1`, the z-score was found to be 0.288. The same measure for `CC(=O)NCc1c(Cl)cccc1-n1cccc1`: 0.18; for `COc1ccccc1N1CCN(S(=O)(=O)c2ccccc2)CC1`: -0.0523.

For the compound `COc1ccc(S(=O)(=O)N(CC(=O)Nc2ccc(S(=O)(=O)N3CCOCC3)cc2)Cc2ccc(F)cc2)cc1`, the z-score was -0.0915. The same measure for `CCOC(=O)NCc1ccc(S(=O)(=O)Nc2c(C)cccc2C)cc1`: 0.515; for `O=C(CCCc1ccccc1)NCc1ccc(F)cc1`: 0.138; for `COc1ccc(CC(=O)NC(C)c2nnc(SCc3nc4ccccc4c(=O)[nH]3)n2C)cc1` (stereo not drawn): 0.542. Consider `C[C@H](NC(=O)c1ccccc1Cl)C(=O)OCC(=O)N1CC2(C)CC1CC(C)(C)C2` (stereo partly drawn), for which the z-score was found to be 0.00588.

The compound `c1cncc(-c2nc3ccccc3[nH]2)c1` returned a z-score of -0.186. The same measure for `Cc1cc(SCC(=O)OCC(=O)N2CCN(C(=O)c3ccco3)CC2)c(C)cc1Br`: -0.417. The same measure for `COc1ccc(C(=O)C[n+]2ccc(C)cc2)cc1`: -0.262. In turn, `O=C(Cn1nc(-c2ccccc2)ccc1=O)NCC1COCCO1` (stereo not drawn) gave a z-score of 0.993. For `O=C(c1cccc(Cl)c1Cl)N1CCN(c2ccccn2)CC1`, the z-score stood at 0.285. For `COc1ccc(NC(=O)C23CC4CC(C2)CC(n2cnc(Br)n2)(C4)C3)c(C)c1` the value was 0.0432. The same measure for `O=C(c1ccco1)N1CCN(S(=O)(=O)Cc2ccc(Cl)cc2)CC1`: -0.261; for `CCOc1ccc(-n2cc(C(=O)N3CCN(C)CC3)c3cc(OC)c(OC)cc3c2=O)cc1`: -0.207. The same measure for `COc1cccc(Nc2nc(NCC3CCCO3)c3ccccc3n2)c1` (stereo not drawn): 0.458; for `CN(Cc1ccccc1)Cc1c(F)cccc1F`: 0.236; for `Cc1ccc(NS(=O)(=O)c2ccc(OCC(=O)N3CCOCC3)cc2)cc1`: 0.0793.

In turn, `CC(C)c1ccccc1N=C1SCCN1C1CCS(=O)(=O)C1` (stereo not drawn) had a z-score of 0.193. As for `C=CCN1C(=O)C(O)(CC(=O)c2ccc(-n3cccc3)cc2)c2ccccc21` (stereo not drawn), the z-score worked out at 0.0333. `Cc1ccc(-c2nc(-c3cccnc3)no2)cc1`: the z-score worked out at 0.348. The same measure for `CCCCC(=O)c1ccc(O)cc1`: 0.0642; for `COc1cccc2c(=O)n(CC(=O)N3CCN(c4ccccc4)CC3)ccc12`: -0.385.

Compound `Cc1ccccc1-n1c(O)c(/C=C/C=Nc2ccccc2)c(=O)[nH]c1=O` showed a z-score of 0.127. The compound `O=C(O)c1ccc(CSc2nnc(SCc3ccccc3)s2)cc1` gave a z-score of -0.1. The same measure for `COc1ccc(N2CCN(C(=O)c3ccc(N4C(=O)NC5CC4(C)Oc4ccccc45)cc3)CC2)cc1` (stereo not drawn): 0.106; for `COc1ccc(-c2nc(CS(=O)CC(=O)NCC3CCCO3)c(C)o2)cc1` (stereo not drawn): -0.042. The same measure for `COc1ccc(/C=C/C(=O)O)cc1COc1cccc(C)c1`: 0.0229. For `Cn1c(=O)c2c(nc(OCc3ccccc3)n2C)n(C)c1=O` the value was -0.335; for `Cc1cc(S(=O)(=O)Nc2c(C(=O)O)[nH]c3ccccc23)ccc1F`, -0.226. `CCOC(=O)c1cc(CC)sc1NC(=O)c1cc(OC)c(OC)c(OC)c1`: the z-score is 0.399.
